Results published in PubChem BioAssay AID624417 (National Center for Advancing Translational Sciences (NCATS), 2012).
Where “and” joins values, the source holds several entries; their conditions need not be identical. Identical values can stand only once. Among all 410,000 compounds or so, about 6,400 (1.6%) were called active. The inconclusive results got no clear call from the source; some entries with a clear call stand among them for comparison. Calls follow the shape of the dose curve; as a rule, active = well fitted inhibition curve with a large enough effect; inconclusive = small, poorly fitted or top-dose-only effect; inactive = no such curve, though single readings can be large or run the other way. Where the call is inconclusive, the potency comes from a doubtful curve fit.

These compounds were tested against Glucagon-like peptide 1 receptor (Homo sapiens) (UniProt P43220) (assay: qHTS of GLP-1 Receptor Inverse Agonists (Inhibition Mode)). Settings: HEK293 GLP-1R CRE-luciferase, luminescence, 24 h, GLP-1R form is constitutively active; activity change, negative = inhibition: at 38.3 µM (top of the series) unless noted.
Procedure, shortened: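 Using stably transfected HEK293 (constitutively active GLP-1R, cAMP-luciferase reporter), compounds were incubated 24 hr and luciferase measured by luminescence.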
% is scaled to controls: 0 for no effect and ±100 for the full control effect; potency is read from the fitted curve at half-maximal effect; tags tell the direction and shape of the fitted curve.
Also: nearly all actives have a fitted effect of over 55% in size.

UniProt P43220, sequence (P43220 whole entry, looked up): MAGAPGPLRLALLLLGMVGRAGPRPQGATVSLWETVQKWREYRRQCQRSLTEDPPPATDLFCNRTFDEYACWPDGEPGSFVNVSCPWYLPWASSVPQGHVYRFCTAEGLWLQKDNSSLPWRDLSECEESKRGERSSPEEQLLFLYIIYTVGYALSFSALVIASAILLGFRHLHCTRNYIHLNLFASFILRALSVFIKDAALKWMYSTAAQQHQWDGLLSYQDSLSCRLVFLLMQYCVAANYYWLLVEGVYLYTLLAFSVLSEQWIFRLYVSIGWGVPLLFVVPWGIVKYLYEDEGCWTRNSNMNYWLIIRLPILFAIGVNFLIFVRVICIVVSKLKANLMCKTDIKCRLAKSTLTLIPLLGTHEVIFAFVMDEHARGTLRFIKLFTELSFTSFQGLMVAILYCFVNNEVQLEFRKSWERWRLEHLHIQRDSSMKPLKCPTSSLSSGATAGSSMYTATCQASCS

Compound	Potency	activity change, negative = inhibition
COc1ccc(C(=O)N(c2ccc(C)cc2)S(=O)(=O)c2ccc(C)cc2)cc1	active: 3.16 µM	
COc1ccc(-c2ccc(N(C)C)cc2)cc1[C@H]1[C@@H]2C=CCC[C@@]2(C)C(=O)N1Cc1ccccc1	inconclusive: 10 µM [inhibitor, single point]	
Cc1ccc(N2C(=O)CS(=O)(=O)C23C(=O)N(Cc2ccc(Cl)cc2)c2ccccc23)cc1C (centres undefined)		inactive: -21.3%
CC1CCN(CC(O)CN2c3ccccc3Sc3ccccc32)CC1 (centres undefined)	inconclusive: 11.2 µM [inhibitor, single point]	
Cc1cc(N2CCC(C)CC2)nc(-n2nc(C)cc2C)n1	inconclusive: 0.501 µM [inhibitor, full curve, poor fit]	
O=C(CN1CCN(Cc2ccccc2)CC1)N/N=C/c1cccnc1		inactive: 7.03%
Cc1ccc(Cc2nc3ccccc3nc2SCC(=O)NCc2ccccc2Cl)cc1		inactive: 3.36%
O=C(Nc1ccccc1)N1CCN(c2nc(-c3ccccc3)ns2)CC1	inconclusive: 10 µM [inhibitor, partial curve, poor fit]	
Cc1ccc(NC(=O)c2c(C)nn(-c3ccccc3)c2-n2cccc2)c(Cl)c1		inactive: 21.9%
CC(C)(C)Cc1c(-c2ccc(Br)cc2)nc2ccc(Cl)cn12	inconclusive: 0.891 µM [inhibitor, full curve, poor fit]	
O=C(CSc1nnc(CNc2ccc(F)cc2)o1)N1CCCc2ccccc21	inconclusive: 3.98 µM [inhibitor, partial curve, poor fit]	
COC(=O)N/N=C/c1cn(Cc2ccccc2Cl)c2ccccc12	inconclusive: 4.47 µM [inhibitor, partial curve]	
Cn1c(=O)c2cc(NC(=O)Nc3ccccc3)ccc2n1Cc1ccccc1	inconclusive: 15.8 µM [inhibitor, partial curve, poor fit]	
CCN(Cc1nc(-c2ccccc2)no1)C(=O)c1ccc2c(c1)OCO2	inconclusive: 28.2 µM [inhibitor, single point]	
O=C(c1ccc(-c2ccccc2)cc1)N1CCC2CC1c1cc(-c3ccc4c(c3)OCO4)ccc12 (centres undefined)	inconclusive: 28.2 µM [inhibitor, single point]	
O=C(NCC1CCCO1)c1cn(Cc2ccccc2Cl)nc1-c1ccccc1 (centres undefined)	inconclusive: 11.2 µM [inhibitor, single point]	
CCOc1ccc(/C=C/c2nc(C#N)c(NCCCN(C)C)o2)cc1	inconclusive: 31.6 µM [inhibitor, partial curve, poor fit]	
Clc1cccc(-c2nc3ccc(Cl)cn3c2Cc2ccccc2)c1	inconclusive: 28.2 µM [inhibitor, single point]	
CC(C)(C)n1nnnc1C(c1ccccc1)N1CCN(c2ncccc2C(F)(F)F)CC1 (centres undefined)	inconclusive: 28.2 µM [inhibitor, single point] and inconclusive: 10 µM [inhibitor, partial curve]	
OCc1nc2ccccc2n1Cc1ccc(Cl)cc1	inconclusive: 31.6 µM [inhibitor, single point]	
O=C(/C=C/c1ccc(Cl)cc1)N1CCN(c2ccccc2[N+](=O)[O-])CC1	inconclusive: 12.6 µM [inhibitor, single point]	
COc1ccc2nc(C)cc(Nc3ccc(N4CCOCC4)cc3)c2c1	inconclusive: 6.31 µM [inhibitor, partial curve, poor fit]	

Compound	Potency	activity change, negative = inhibition
COc1ccccc1NC(=O)c1ccc(NC(=O)C2COc3ccccc3O2)cc1 (centres undefined)	inconclusive: 28.2 µM [inhibitor, single point]	
CC(C)CCC(=O)Nc1cc(S(=O)(=O)N2CCOCC2)ccc1N1CCCC1		inactive: 8.82%
COc1cccc(C(C(=O)NCc2ccccc2)N2CCN(c3ccccc3F)CC2)c1OC (centres undefined)	inconclusive: 28.2 µM [inhibitor, single point]	
Cc1nc(Nc2ccccc2)sc1-c1ccccc1	inconclusive: 14.1 µM [inhibitor, single point]	
O=C1CCCCC1Nc1ccc2ccccc2c1 (centres undefined)	inconclusive: 28.2 µM [inhibitor, single point]	
CCOc1ccccc1NC(=O)CSc1ccc2nc(-c3ccccc3)cn2n1		inactive: 13.8%
O=C(CSc1nc2nn(-c3ccccc3)c(=O)c-2c2n1CCCCC2)Nc1cccc(F)c1	inconclusive: 15.8 µM [inhibitor, single point]	
CCCCCC(C)NC(=O)c1cc(S(=O)(=O)N2CCCCC2)ccc1N1CCOCC1 (centres undefined)	inconclusive: 20 µM [inhibitor, single point]	
CCOC(=O)[C@@H]1[C@H]2COc3ccc(Br)cc3[C@H]2N2C(=O)N(c3cccc(F)c3)C(=O)[C@]12C	inconclusive: 11.2 µM [inhibitor, partial curve, poor fit]	
CCOC(=O)C(C)n1nc(-c2ccccc2)c2ccccc2c1=O (centres undefined)	inconclusive: 28.2 µM [inhibitor, single point]	
CCCC(=O)N1CCC(Cc2ccccc2)CC1		inactive: -21%
COC(=O)C1NN=C(C(=O)c2ccc(Br)cc2)C1c1cccc(Br)c1 (centres undefined)	inconclusive: 11.2 µM [inhibitor, partial curve, poor fit]	
O=C(NCc1ccccc1)C1=C[C@H](c2csc3ccccc23)C[C@H](OCCCCO)O1	inconclusive: 28.2 µM [inhibitor, single point]	
CCCCn1c(N)c(N(CC)C(=O)Cc2ccc(S(=O)(=O)N3CCOCC3)s2)c(=O)[nH]c1=O		inactive: 7.74%
CSc1cccc(NC(=O)CN2C(=O)CCc3cc(S(=O)(=O)N4CCCCC4)ccc32)c1	inconclusive: 11.2 µM [inhibitor, single point]	
CCC(C)N(C(=O)CCC(=O)Nc1cc(C)on1)C(C(=O)NC(C)(C)C)c1ccccc1Cl (centres undefined)	inconclusive: 28.2 µM [inhibitor, single point]	
Cc1ccc(NC(=O)C(C)Sc2nc3c(c(=O)[nH]2)CCCC3)cc1Cl (centres undefined)		inactive: 8.76%
COc1ccccc1-c1nnc(C2CCN(S(=O)(=O)c3cccc([N+](=O)[O-])c3)CC2)o1	inconclusive: 12.6 µM [inhibitor, partial curve, poor fit]	
CC(Oc1ccccc1)C(=O)Nc1nc(-c2ccccn2)cs1 (centres undefined)	inconclusive: 28.2 µM [inhibitor, partial curve, poor fit]	
COc1ccc(N(CC(=O)NCCSc2ccccc2)S(=O)(=O)c2ccccc2)cc1OC	inconclusive: 8.91 µM [inhibitor, partial curve, poor fit]	
COc1ccc(N2CCN(CCCNC(=O)c3ccc4nc(Cc5ccccc5)oc4c3)CC2)cc1	inconclusive: 10 µM [inhibitor, partial curve, poor fit]	
CC(=O)c1cccc(Nc2cc(C)nc3c(C)cc(C)cc23)c1	inconclusive: 28.2 µM [inhibitor, single point]	

Compound	Potency	activity change, negative = inhibition
O=C(CSc1ccc(-c2nc3ccccc3[nH]2)cn1)N1CCN(C(=O)c2ccco2)CC1		inactive: 0%
Cc1cc(/C=C(\C#N)C(=O)N2CCCCC2)cc(C)c1O	inconclusive: 11.2 µM [inhibitor, single point]	
O=C(NCc1cccs1)c1ccncc1		inactive: 19.5%
O=C(COc1ccccc1)c1ccccc1		inactive: 4.17%
CCOc1ccc(NC(=O)CN2CCN(Cc3c(F)cccc3F)CC2)cc1	inconclusive: 10 µM [inhibitor, partial curve, poor fit]	
O=C(NC1CCCC1)c1nc2c(nnn2Cc2ccccc2Cl)c(=O)[nH]1	inconclusive: 10 µM [inhibitor, partial curve, poor fit]	
CCOC(=O)c1cnc2c(C)c(Cl)ccc2c1NCCCN1CCOCC1	inconclusive: 28.2 µM [inhibitor, single point]	
COc1cc2ccccc2cc1C(=O)N1CCN(c2nc3c(F)cc(F)cc3s2)CC1		inactive: 5.07%
O=C(COC(=O)c1ccccc1)NC1CCCCCC1	inconclusive: 8.91 µM [inhibitor, partial curve, poor fit]	
Cc1ccc(S(=O)(=O)/N=C(\CCl)N2CCOCC2)cc1	inconclusive: 28.2 µM [inhibitor, single point]	
O=C(Nc1ccn(Cc2ccccc2F)n1)c1ccc(COc2ccccc2Cl)cc1	inconclusive: 7.94 µM [inhibitor, partial curve, poor fit]	
CCOP(=O)(OCC)C(Nc1cccc(C(F)(F)F)c1)c1ccc(F)cc1 (centres undefined)	inconclusive: 10 µM [inhibitor, partial curve, poor fit]	
O=C(Cn1c(-c2cscn2)nc2ccccc21)Nc1ccc(Cl)cc1	inconclusive: 28.2 µM [inhibitor, single point]	
Cc1cccc(NC(=O)C2CCN(S(=O)(=O)c3ccc4c(c3)OCCO4)CC2)n1		inactive: 1.45%
C/C(=N\NC(=O)COc1cc(C)cc(C)c1)c1cccc(NC(=O)C2CCC2)c1	inconclusive: 12.6 µM [inhibitor, partial curve, poor fit]	
CC(C)=CC1C=C(C)C(C)C2C(=O)NNC(=O)C12 (centres undefined)		inactive: 0%
O=c1sc2ccccc2n1CCOc1ccccc1	inconclusive: 28.2 µM [inhibitor, single point]	
CCCN(CCC)CC(=O)NCC1(c2ccccc2)CCOCC1	inconclusive: 2.82 µM [inhibitor, partial curve, poor fit]	
Cc1ccc(OCc2n[nH]c(=S)n2-c2ccccc2)cc1		inactive: -15.4%
COc1ccc(OC)c(N(CCN2C(=O)c3ccccc3C2=O)C(=O)CCl)c1	inconclusive: 11.2 µM [inhibitor, partial curve, poor fit]	
